Measurements reported in PMC4737077.
No constants are given. Whether binding was seen depends on the method and setting. For some of these results: Binding seen in cells or lysates may run through a third protein. Some results given as binding are weak or reduced against the parent protein; the word gives no strength. Tags and fused reporters may be left off the sequences shown. Each block holds one molecule with its values, some of them ahead of it.

By UniProt entry, the sequences of proteins in these tests, tags left out. Where a name states a change or a piece, a line headed by the entry shows the natural chain unless it says otherwise. Residues count along the entry.
UniProt Q43125: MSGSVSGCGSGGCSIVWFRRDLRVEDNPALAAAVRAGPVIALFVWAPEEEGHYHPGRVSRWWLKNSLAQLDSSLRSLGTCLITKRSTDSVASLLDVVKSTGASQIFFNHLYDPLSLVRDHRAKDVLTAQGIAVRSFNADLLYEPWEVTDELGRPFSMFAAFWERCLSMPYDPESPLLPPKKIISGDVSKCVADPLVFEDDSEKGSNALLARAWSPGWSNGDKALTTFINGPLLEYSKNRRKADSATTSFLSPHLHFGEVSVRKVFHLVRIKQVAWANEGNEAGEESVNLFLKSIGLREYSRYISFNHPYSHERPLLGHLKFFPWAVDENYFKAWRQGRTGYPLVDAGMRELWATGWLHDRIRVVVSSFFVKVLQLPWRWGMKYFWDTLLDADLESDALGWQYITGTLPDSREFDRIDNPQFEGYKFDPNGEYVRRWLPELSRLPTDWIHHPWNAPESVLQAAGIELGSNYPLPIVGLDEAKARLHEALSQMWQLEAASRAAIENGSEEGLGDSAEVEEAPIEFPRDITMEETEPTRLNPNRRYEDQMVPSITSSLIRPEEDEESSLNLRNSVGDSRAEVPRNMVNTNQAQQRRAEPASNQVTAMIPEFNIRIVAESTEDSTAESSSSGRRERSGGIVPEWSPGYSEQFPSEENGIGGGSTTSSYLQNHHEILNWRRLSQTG
CRY1N^515 (amino acids 1-515), GAL4 DNA-binding domain fusion: residues 1-515 of Q43125
CRY1N^505 (amino acids 1-505), BiFC fusion: residues 1-505 of Q43125

How the values were obtained:
[1] = target: T1, Myc-TCP2 (Arabidopsis thaliana) (UniProt Q93V43); assay: co-IP; extract of leaves of 35S::Myc-TCP2/WT Arabidopsis, dark 16 h, 50 μM MG132 4 h, then blue light (35 μmol m^-2 s^-1) for 0, 30 or 240 min; agarose conjugated with anti-Myc antibody, NEB buffer (20 mM HEPES pH 7.5, 40 mM KCl, 1 mM EDTA, 1% Triton X-100), 4 °C; blot with anti-CRY1
T1 sequence: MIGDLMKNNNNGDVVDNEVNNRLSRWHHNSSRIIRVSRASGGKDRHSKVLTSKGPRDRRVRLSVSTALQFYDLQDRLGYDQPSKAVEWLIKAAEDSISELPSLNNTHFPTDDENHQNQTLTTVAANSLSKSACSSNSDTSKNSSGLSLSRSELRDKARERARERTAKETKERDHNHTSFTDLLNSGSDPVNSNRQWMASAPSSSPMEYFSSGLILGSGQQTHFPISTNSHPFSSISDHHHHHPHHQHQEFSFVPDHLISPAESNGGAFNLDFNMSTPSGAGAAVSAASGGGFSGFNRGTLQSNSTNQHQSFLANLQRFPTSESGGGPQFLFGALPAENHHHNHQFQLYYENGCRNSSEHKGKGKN

[2] = target: cryptochrome 1 (CRY1), GAL4 DNA-binding domain fusion (Arabidopsis) (UniProt Q43125); assay: two-hybrid; BD-CRY1 in pBridge as bait, AD fusions of TCP2 fragments in pGADT7 as prey, co-transformed into AH109; auxotrophy and liquid (β-gal) assays under different light
[3] = target: cryptochrome 1 (CRY1), GAL4 DNA-binding domain fusion (Arabidopsis) (UniProt Q43125); assay: two-hybrid; blue-light-differentiated screen of a library of >1000 Arabidopsis transcription factors (AH109 with BD-CRY1 in pDEST32 mated with Y187 library clones); β-gal liquid assay in blue light (10, 25, 40 μmol m^-2 s^-1)
[4] = target: cryptochrome 1 (CRY1), GAL4 DNA-binding domain fusion (Arabidopsis) (UniProt Q43125); assay: condition: only red light (18 μmol m^-2 s^-1) or darkness for 4 h, without blue light; two-hybrid; same yeast, β-gal liquid assay in red light (18 μmol m^-2 s^-1) or darkness for 4 h, no blue light
[5] = target: CRY1N^505 (amino acids 1-505), GAL4 DNA-binding domain fusion (Arabidopsis) (UniProt Q43125); assay: two-hybrid; BD fusions of CRY1 fragments in pDEST32 as bait, AD-TCP2 in pDEST22 as prey, co-transformed into AH109; auxotrophy on SD/-Trp/-Leu/-His/+10 mM 3-AT under blue, red, far-red light or darkness at 28 °C for 3 d; β-gal assay with CPRG
[6] = target: CRY1N^515 (amino acids 1-515), GAL4 DNA-binding domain fusion (Arabidopsis) (UniProt Q43125); assay: as above
[7] = target: CRY1N^505 (amino acids 1-505), BiFC fusion (Arabidopsis) (UniProt Q43125); assay: split reporter; BiFC in Nicotiana benthamiana leaves, CRY1N505 and TCP2; light treatment told only in Supplementary Fig. S2C, D

B1: TCP2 R&CT domain (amino acids 151-365), GAL4 activation domain fusion (domain or fragment, UniProt Q93V43 151-365)
chain: SELRDKARERARERTAKETKERDHNHTSFTDLLNSGSDPVNSNRQWMASAPSSSPMEYFSSGLILGSGQQTHFPISTNSHPFSSISDHHHHHPHHQHQEFSFVPDHLISPAESNGGAFNLDFNMSTPSGAGAAVSAASGGGFSGFNRGTLQSNSTNQHQSFLANLQRFPTSESGGGPQFLFGALPAENHHHNHQFQLYYENGCRNSSEHKGKGKN
binding [2]: binds weakly

B2: TEOSINTE-LIKE1, CYCLOIDEA, and PRO… CELL FACTOR 2 (TCP2), GAL4 activation domain fusion (protein, UniProt Q93V43 1-365)
chain: T1 sequence
binding [3]: binds
binding [4]: no binding
binding [5]: binds
binding [6]: binds

B4: TCP2 TCPn domain (amino acids 1-150), GAL4 activation domain fusion (domain or fragment, UniProt Q93V43 1-150)
chain: MIGDLMKNNNNGDVVDNEVNNRLSRWHHNSSRIIRVSRASGGKDRHSKVLTSKGPRDRRVRLSVSTALQFYDLQDRLGYDQPSKAVEWLIKAAEDSISELPSLNNTHFPTDDENHQNQTLTTVAANSLSKSACSSNSDTSKNSSGLSLSR
binding [2]: binds

B5: TCP2 CT domain (amino acids 175-365), GAL4 activation domain fusion (domain or fragment, UniProt Q93V43 175-365)
chain: NHTSFTDLLNSGSDPVNSNRQWMASAPSSSPMEYFSSGLILGSGQQTHFPISTNSHPFSSISDHHHHHPHHQHQEFSFVPDHLISPAESNGGAFNLDFNMSTPSGAGAAVSAASGGGFSGFNRGTLQSNSTNQHQSFLANLQRFPTSESGGGPQFLFGALPAENHHHNHQFQLYYENGCRNSSEHKGKGKN
binding [2]: binds weakly

B6: TCP2 TCP fragment (amino acids 1-174), GAL4 activation domain fusion (domain or fragment, UniProt Q93V43 1-174)
chain: MIGDLMKNNNNGDVVDNEVNNRLSRWHHNSSRIIRVSRASGGKDRHSKVLTSKGPRDRRVRLSVSTALQFYDLQDRLGYDQPSKAVEWLIKAAEDSISELPSLNNTHFPTDDENHQNQTLTTVAANSLSKSACSSNSDTSKNSSGLSLSRSELRDKARERARERTAKETKERDH
binding [2]: binds

Now from value to molecule:

binding [1]: binds
Molecule: cryptochrome 1 (CRY1), endogenous (from UniProt Q43125 1-681)

binding [7]: binds
B3: nYFP-TCP2 (N-terminal region of yellow fluorescent protein fused to TCP2) (protein, UniProt Q93V43 1-365)
chain: T1 sequence
